{
  "source": "PubChem BioAssay AID652104",
  "about": "(National Center for Advancing Translational Sciences (NCATS), 2013)",
  "note": "About 7,200 (1.8%) of roughly 410,000 compounds were called active. Inconclusive results, whose numbers are uncertain, are shown with a selection of clear calls. The call rests on the fitted dose curve; in most records, active means well fitted activation curve with a large enough effect; inconclusive means small, poorly fitted or top-dose-only effect, or another doubt; inactive means no such curve, though single readings can be large or run the other way. Potencies of inconclusive entries are left out as doubtful fits. Potency means the concentration at half of the fitted maximal effect; tags describe the fitted curve by direction and shape.",
  "data": [
    {"experiment": "qHTS of TDP-43 Inhibitors; further: nearly all actives have a fitted effect of over 50% in size; on growth rescue (activation): % of control where 0% means no effect", "conditions": "TDP-43 expressing yeast growth rescue, BacTiter-Glo, 24 h; growth rescue (activation): at 46.1 µM (top of the series) unless noted", "summary_of_the_method": "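Galactose-induced TDP-43 yeast, OD600=0.02, compound pinned; 24 hr, 30 deg C; BacTiter-Glo luminescence for growth. Inhibitors of TDP-43 toxicity read as activators.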", "values": [
      {"compound": "Cn1cc(/C(Cc2ccccc2)=N\\O)c2ccccc21", "Potency": "inactive"},
      {"compound": "CN(C)/C=C/C(=O)c1ccccc1", "Potency": "inconclusive [activator, single point]"},
      {"compound": "N#CC1c2ccccc2C=CN1C(=O)c1ccccc1", "note": "(stereo not given)", "Potency": "inconclusive [activator, partial curve]"},
      {"compound": "COc1ccc(-c2cc(NC=O)c3ncc(-c4ccc(OC)c(OC)c4)n3c2)cc1", "Potency": "inconclusive [activator, full curve]"},
      {"compound": "O=S(=O)(c1cccc(-c2csc(-c3cccnc3)n2)c1)N1CCOCC1", "Potency": "inconclusive [activator, single point]"},
      {"compound": "Cc1ccc(C)c2[nH]c(=O)c(CCNC(=O)CC(C)C)cc12", "Potency": "inconclusive [activator, full curve, poor fit]"},
      {"compound": "COc1ccc(-n2nc3c(c2NC(=O)COc2ccccc2F)CS(=O)(=O)C3)cc1", "Potency": "inconclusive [activator, full curve, poor fit]"},
      {"compound": "COc1ccc(/C=C/C(=O)Nc2sc3c(c2C(N)=O)CCC(C)C3)cc1OC", "note": "(stereo not given)", "Potency": "inconclusive [activator, partial curve]"},
      {"compound": "COc1cc(NC(=O)Cc2c(C(=O)O)c(C)cn2C)cc(OC)c1", "Potency": "inactive"},
      {"compound": "COc1ccc(NC(=O)CSc2ccc(-c3ccccn3)nn2)cc1OC", "Potency": "inactive"},
      {"compound": "O=C(O)C/C(=C\\c1ccc2c(c1)OCO2)c1nc2ccccc2s1", "growth rescue (activation)": "inconclusive: -89.3% [activator]"},
      {"compound": "CC(C)N(Cc1nc(-c2ccccc2)no1)C(=O)CN(C)S(=O)(=O)c1ccc(Br)cc1", "Potency": "inconclusive [activator, single point]"},
      {"compound": "Cc1ccccc1NCC(=O)N/N=C\\c1ccc([N+](=O)[O-])s1", "Potency": "inconclusive [activator, single point]"},
      {"compound": "Cc1ccccc1OCC(=O)Nc1ccc2[nH]ncc2c1", "Potency": "active: 12.6 µM"},
      {"compound": "CC(C)C12CN3CC(C(C)C)(CN(C1)C3c1ccc(OCc3ccccc3)cc1)C2=O", "note": "(stereo not given)", "Potency": "inactive"},
      {"compound": "CC(C)n1c(SCC(=O)Nc2ccc(F)cc2)nc2c(oc3ccccc32)c1=O", "Potency": "active: 20 µM"},
      {"compound": "CCCc1cc(C(=O)N2CCN(c3ccccc3C)CC2)cs1", "Potency": "inconclusive [activator, single point]"},
      {"compound": "CC(=O)c1c(N2CCOCC2)nc2ccc(Br)cc2c1-c1ccccc1", "Potency": "active: 14.1 µM"},
      {"compound": "COc1ccccc1N(C)S(=O)(=O)c1ccc(Cl)c(C(=O)Nc2cccc(C)n2)c1", "Potency": "inactive"},
      {"compound": "CC1CCN(c2ccc(NC(=O)c3ccc([N+](=O)[O-])o3)cc2)CC1", "Potency": "inconclusive [activator, single point]"},
      {"compound": "COc1ccc(-c2coc3cc(OC)cc(OC)c3c2=O)cc1", "Potency": "inconclusive [activator, partial curve]"},
      {"compound": "CC(C)(C)OC(=O)N1CCC(c2nnc(SCc3ccccc3)o2)CC1", "Potency": "inactive"},
      {"compound": "C=C1CCN(c2ccc(C(=O)O)cc2[N+](=O)[O-])CC1", "Potency": "inconclusive [activator, single point]"},
      {"compound": "O=C(c1ccc(F)cc1)N1CCC(C(=O)N2CCCc3ccccc32)CC1", "Potency": "inconclusive [activator, partial curve, poor fit]"},
      {"compound": "COc1ccc(-c2noc(-c3ccc(N4CCCCC4C)c([N+](=O)[O-])c3)n2)cc1OC", "note": "(stereo not given)", "Potency": "inactive"},
      {"compound": "O=C(Nc1ccc(F)cc1F)N1CCCC(c2nc(-c3ccc(F)cc3)no2)C1", "note": "(stereo not given)", "Potency": "active: 12.6 µM"},
      {"compound": "CCC(=O)c1ccc(O)c(OC)c1", "Potency": "inactive"},
      {"compound": "CCC(C)(C(=O)NC1CCCC1)N(Cc1cccs1)C(=O)Cc1cccs1", "note": "(stereo not given)", "Potency": "inconclusive [activator, single point]"},
      {"compound": "O=C(CSc1nnc2[nH]c(=O)cc(-c3ccccc3)n12)Nc1ccc(F)cc1F", "Potency": "inconclusive [activator, single point]"},
      {"compound": "Cc1ccc(C2=CC(c3c(F)cccc3Cl)n3ncnc3N2)cc1C", "note": "(stereo not given)", "Potency": "inconclusive [activator, partial curve]"},
      {"compound": "Cc1ccc(NC(=O)CSCC(=O)Nc2ccccc2N2CCCCC2)cc1", "Potency": "inconclusive [activator, single point]"},
      {"compound": "Cc1cc(C)cc(NC(=O)C2CCCN2S(=O)(=O)c2cccc3nsnc23)c1", "note": "(stereo not given)", "Potency": "inactive"},
      {"compound": "COC(=O)CSc1nnc(COc2cccc3ccccc23)o1", "Potency": "inconclusive [activator, single point]"},
      {"compound": "CCOC(=O)C(NC(=O)c1ccccc1)(OCc1ccccc1)C(F)(F)F", "note": "(stereo not given)", "Potency": "inconclusive [activator, partial curve]"},
      {"compound": "Cn1nc(C(=O)NCC2COc3ccccc3O2)c2ccccc2c1=O", "note": "(stereo not given)", "Potency": "active: 20 µM"},
      {"compound": "CC(Sc1ccc2c(c1)OCCO2)C(=O)Nc1ccc2c(c1)OCO2", "note": "(stereo not given)", "Potency": "inconclusive [activator, single point]"},
      {"compound": "CC(OC(=O)c1ccc(O)cc1)C(=O)Nc1cc(C(F)(F)F)ccc1Cl", "note": "(stereo not given)", "Potency": "inconclusive [activator, single point]"},
      {"compound": "COc1c(C(=O)Nc2nccs2)ccc2ccccc12", "Potency": "inconclusive [activator, single point]"},
      {"compound": "CC(=O)Nc1cc(-c2ccccc2)cn2c(-c3ccc(F)c(Cl)c3)cnc12", "Potency": "inconclusive [activator, partial curve]"},
      {"compound": "CC12CCC(=O)N1C(C(=O)OCc1c(Cl)cccc1Cl)CS2", "note": "(stereo not given)", "Potency": "inconclusive [activator, partial curve]"},
      {"compound": "CCCC(=O)NC(c1cccs1)c1cc(Cl)c2cccnc2c1O", "note": "(stereo not given)", "Potency": "inconclusive [activator, single point]"},
      {"compound": "COc1ccccc1Cc1c(-c2cccc(Br)c2)nc2ccc(Cl)cn12", "Potency": "inconclusive [activator, partial curve]"},
      {"compound": "COc1ccc(Cl)cc1NC(=O)CSc1nccn1-c1ccc(Cl)cc1", "Potency": "inconclusive [activator, full curve]"},
      {"compound": "CCOCN(C(=O)Cn1c(COC)nc2ccccc21)c1c(C)cccc1CC", "Potency": "inconclusive [activator, partial curve]"},
      {"compound": "Cc1nc(SCn2nnc3ccccc3c2=O)nc(C)c1C", "Potency": "inconclusive [activator, partial curve]"}
    ]}
  ]
}
